From PMC4336329 (PLoS ONE, 2015)
In all, about 310,000 compounds went through this assay and about 2,200 (0.71%) showed an effect of 50% or more. The effect is printed as a negative number. The list shows a part of the results.

Biological target: human ether-à-go-go-related gene (hERG) potassium channel (human, UniProt Q12809)
Assay: primary screen, population patch clamp on CHO cells stably expressing hERG

human ether-à-go-go-related gene (hERG) potassium channel, sequence (Q12809 whole entry, looked up): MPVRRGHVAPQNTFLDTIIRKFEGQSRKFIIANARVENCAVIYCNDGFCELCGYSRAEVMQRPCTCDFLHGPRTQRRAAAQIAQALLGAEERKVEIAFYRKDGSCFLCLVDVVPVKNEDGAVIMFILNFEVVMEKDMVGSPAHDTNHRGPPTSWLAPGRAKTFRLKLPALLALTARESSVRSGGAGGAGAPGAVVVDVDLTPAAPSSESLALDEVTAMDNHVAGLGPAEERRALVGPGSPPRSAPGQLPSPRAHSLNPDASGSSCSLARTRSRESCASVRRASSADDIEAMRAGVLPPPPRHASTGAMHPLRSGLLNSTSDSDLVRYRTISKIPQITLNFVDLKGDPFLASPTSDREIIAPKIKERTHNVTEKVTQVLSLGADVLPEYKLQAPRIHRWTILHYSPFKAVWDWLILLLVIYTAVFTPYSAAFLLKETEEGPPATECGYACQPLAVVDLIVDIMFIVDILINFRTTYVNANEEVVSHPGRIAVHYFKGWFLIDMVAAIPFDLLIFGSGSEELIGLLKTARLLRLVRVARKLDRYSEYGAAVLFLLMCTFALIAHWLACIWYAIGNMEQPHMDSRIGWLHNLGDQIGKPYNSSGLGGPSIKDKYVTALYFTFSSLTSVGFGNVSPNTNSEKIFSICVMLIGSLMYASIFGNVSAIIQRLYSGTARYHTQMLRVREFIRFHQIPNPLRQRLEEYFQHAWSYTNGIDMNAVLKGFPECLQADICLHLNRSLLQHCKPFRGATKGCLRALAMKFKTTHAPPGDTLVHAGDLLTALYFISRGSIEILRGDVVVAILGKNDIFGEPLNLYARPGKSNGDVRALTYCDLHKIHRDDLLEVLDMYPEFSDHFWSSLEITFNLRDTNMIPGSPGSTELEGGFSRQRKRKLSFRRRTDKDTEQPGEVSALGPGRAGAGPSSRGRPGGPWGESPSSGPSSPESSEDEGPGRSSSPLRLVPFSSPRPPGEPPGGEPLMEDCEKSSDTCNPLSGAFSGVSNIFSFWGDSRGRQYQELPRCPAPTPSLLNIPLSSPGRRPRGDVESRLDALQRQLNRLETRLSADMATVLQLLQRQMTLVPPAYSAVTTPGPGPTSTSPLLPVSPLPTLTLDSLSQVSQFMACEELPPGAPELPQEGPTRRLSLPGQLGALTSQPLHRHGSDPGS

Compound | hERG current change (%, negative = inhibition) at 1uM [%]
[O-][Cl+3]([O-])([O-])[O-].c1ccc(-c2[nH]c[n+](CC3CO3)c2-c2ccccc2)cc1 (stereo not drawn) | 10.1
CCOc1ccc(OCC)c(S(=O)(=O)NCc2ccccn2)c1 | 6.21
CC(=O)NC12CC3CC(CC(CC(=O)O)(C3)C1)C2 | -0.549
COc1ccc(/C=C2/C(=N)N3N=C(CC(=O)N4CCCC4)SC3=NC2=O)cc1 | 10.5
COc1ccc(C(=O)CSc2cc(C)[nH]c(=O)n2)cc1 | 27.1
Cc1ccccc1Nc1scc(-c2ccc(Br)cc2)[n+]1-c1ccccc1C.[Br-] | 7.69
CCCN1CCN(C(=S)Nc2ccccc2C(F)(F)F)CC1 | 8.34
O=C(c1ccccc1F)N1CCN(c2cnn(-c3cccc(Cl)c3)c(=O)c2Cl)CC1 | 5.28
CSc1sc(C(=O)NCC2CC2)cc1S(=O)(=O)C(C)C | 11
Cc1nccn1CC(O)COC1CCCCC1 (stereo not drawn) | 7.3
CN(CC(=O)NCc1ccco1)CC(=O)Nc1c(Cl)cccc1Cl | -1
CCCS(=O)(=O)N1CCN=C1SCc1ccc(F)cc1 | 11.2
CN(Cc1cnn(C)c1)C(=O)C1CCC(=O)N(C2CCCCCC2)C1 (stereo not drawn) | 7.91
O=C(N/N=C\c1cccc(Br)c1)c1ccccc1-n1cccc1 | 15.8
Cc1noc(C)c1COc1ccc(C(=O)N2CCN(S(=O)(=O)c3ccccc3)CC2)cc1 | -3.61
CC(C)c1nnc(SCC(=O)N2CCOCC2)n1C | 11.4
COc1ccccc1NC(=O)Cn1c2ccccc2c2nc3n(c(=O)c21)CCS3 | 9.03
Cn1c(Cn2c(=O)sc3ccccc32)nnc1SCC(=O)Nc1cccc(F)c1 | 11
Cc1ccc(NC(=O)CSc2nncc3ccccc23)cc1 | 1.16
CS(=O)CSc1nc2c(cc1C#N)CCCC2 (stereo not drawn) | -1.11

Compound | hERG current change (%, negative = inhibition) at 1uM [%]
Cc1oc(C(=O)O)cc1CSCc1cc(C(=O)O)c(C)o1 | 13
CCS(=O)(=O)c1ccc(C(=O)Nc2ccccc2OC)c(Cl)c1Cl | 13.8
CC(C)c1nc(CN2CCCCC2)cc(=O)[nH]1 | 10.3
Cc1ccc(NC(=O)c2cccc(S(=O)(=O)N3CCN(c4ccc(F)cc4)CC3)c2)nc1 | 8.81
COc1cc(NC(=O)C2CCCCC2)c(OC)cc1NC(=O)c1ccccc1 | 11.5
Cc1ccc(Cn2ccc(=O)c(OCc3c(Cl)cccc3Cl)c2C)cc1 | 10.7
CC(C)(CCO)NC(=S)NC1CC2C=CC1C2 (stereo not drawn) | 1.78
Nc1ccc(C(=O)c2ccc3c(c2)OCCO3)cc1N | 7.89
O=C(CNc1cccc2ccccc12)N/N=C/C(Br)=C/c1ccccc1 | 12.1
O=C(CC1C(=O)NCCN1C(=O)Nc1ccc(F)cc1)Nc1ccc(F)cc1 (stereo not drawn) | 15.7
O=C(Cc1c(F)cccc1Cl)N1CCOCC1 | 0.858
Cc1cccc(N2C(=O)NC(=O)/C(=C/c3cc4c(cc3[N+](=O)[O-])OCO4)C2=O)c1 | 14.9
NNc1nc(-c2ccccc2)nc(-c2ccccc2)c1Br | 7.7
CC(=O)CCCCn1cnc2c1c(=O)n(C)c(=O)n2C | 15.4
CC1CCCC(C)N1/N=C/c1ccccc1OC(F)F (stereo not drawn) | 14.2
O=C(Nc1nnc(-c2ccccc2F)s1)Nc1ccccc1F | 16.5
COc1ccc(OCC(=O)N2CCN(C(=O)c3cccs3)CC2)cc1 | -20.3
COCCCN(C(=O)c1cc(C)oc1C)c1c(N)n(CC(C)C)c(=O)[nH]c1=O | 13.3
Cc1ccccc1-c1nnc(SCC(=O)Nc2c(C)n(C)n(-c3ccccc3)c2=O)o1 | 4.01
CCOC(=O)N/N=C\c1ccccc1OC/C=C/c1ccccc1 | 5.31

Compound | hERG current change (%, negative = inhibition) at 1uM [%]
CCCn1c(=O)c2c(C(F)(F)F)cc(-c3ccco3)nc2n(CCC)c1=O | 7.96
CC(CN1CCOCC1)OC(=O)c1cccc(Cl)c1.Cl (stereo not drawn) | 11.6
Cn1c(=O)[nH]c(=O)c2c1nc(NCCN)n2CCOc1ccccc1 | 18.6
COc1c(O)ccc(/C=N\NC(=O)c2ccc3c(c2)OCO3)c1[N+](=O)[O-] | 8.5
CCN1CCN(C(=O)CCc2nnc(CCc3ccc(OC)cc3)o2)[C@@H](C)C1=O | 10.5
O=C(NC1CCN(Cc2ccccc2Cl)CC1)c1ccccc1 | 10
CN(C)c1ccccc1C(=O)c1ccccc1N(C)C | 4.96
O=C(C[n+]1cc[nH]c1)c1ccc(Cl)cc1.[Cl-] | 9.68
CSCc1ccc(C(=O)N2CCCC(Nc3ccc4c(c3)OCCO4)C2)o1 (stereo not drawn) | 3.83
O=C(Cn1cncn1)N/N=C/c1cccc(Cl)c1 | 14.8
CCOc1ccc(NC(=O)CCCn2c(=S)[nH]c3ccsc3c2=O)cc1 | 10.1
O=C(N1CCCC1)C12CC3CCC(CC(C3)C1)C2 | 11.4
CN(C)c1nc(OCCNC(=O)COc2ccc(Cl)cc2Cl)nc(N2CCOCC2)n1 | 2
COC(=O)C(NC=O)C(O)(Cc1ccccc1)C(F)(F)F (stereo not drawn) | 6.35
CSc1ncccc1C(=O)OCc1c(F)cccc1Cl | 14.2
CN(C)S(=O)(=O)Oc1cccc(C(=O)Nc2cccc(Cl)c2)c1 | 6.68
COC(=O)C1=C(c2ccc(F)cc2OCc2ccccc2)C[C@@H]2CC[C@H]1N2C(=O)NCCNC(C)=O | 16.4
Cc1cc(C)n(/N=C/c2ccc(C(C)C)cc2)c(=O)c1C#N | 13.2
C/C(=N\NC(N)=O)c1ccccc1Cl | 2.37
CCCC(=O)Nc1cccc(NC(=S)NC(=O)C(C)Oc2ccc(Cl)cc2Cl)c1 (stereo not drawn) | -1.84
